This is one part of the list.

The chains are these.
B1: chrX:72139229:72139330:+|CDS|ENSG00000204131|unk|total|mutant (ssRNA)
RNA: GGGAGUUCUACAGUCCGACGAUCUCCCUCCGUGCCCAGCAAGAGGCCCAGCACAGAAGGCAGAGGUCCAAGAGUAUCUCACUCCGGAAGGCCAAAAAGAAGCCUUCCCCACCCACACGCAGUGUCUCACUGGUCAAAGAUGAGCAACAGAGGAUUGAGCAUCA
B2: chr8:93922960:93923061:+|CDS|ENSG00000164951|msi1|FALSE|unique (ssRNA)
RNA: GGGAGUUCUACAGUCCGACGAUCCGGCUCAUGGUCAGCAGUCACGCUGUCUAAUGACCACAAUGCUCAAAAUGAAAGAGAACUAGAACGGCUGAAAUUGGAACAUCCAAAGAGUGAGGCCAAGAGUGUCGUGAAACAGGAUCGCAACAGAGGAUUGAGCAUCA
B3: chr9:16436428:16436529:-|CDS|ENSG00000173068|msi1|total|mutant (ssRNA)
RNA: GGGAGUUCUACAGUCCGACGAUCCUCCCCCGCCAGCCCGUAUUUUCUGGGCUAAAGACUGUACAACCAGUUCCUCCAUUUUACCGAAGUUUACUCACUCCAGGGGAAAUGGUGAGUCCUCCAACCUCCCUCCCAACCAGUCCCCAACAGAGGAUUGAGCAUCA
B4: chr1:52238154:52238269:+|CDS|ENSG00000157077|unk|FALSE|unique (ssRNA)
RNA: GGGAGUUCUACAGUCCGACGAUCUCUGAUAGUCUAGCCAGUGUCUGUUCCCCUUCACAAUUAAAGGAUGACGGAAGUAUAGGUAGAGACCCCUCCAUGUCUGCGAUUACAAGUUUAACGGUUGAUUCAGUAAUCUCAUCCCAGCAACAGAGGAUUGAGCAUCA
B5: chr10:78035461:78035635:+|CDS|ENSG00000138326|unk|FALSE|unique (ssRNA)
RNA: GGGAGUUCUACAGUCCGACGAUCCAUUGAUGUCCUUCACCCCGGGAAGGCGACAGUGCCUAAGACAGAAAUUCGGGAAAAACUAGCCAAAAUGUACAAGACCACACCGGAUGUCAUCUUUGUAUUUGGAUUCAGAACUCAUUUCAACAGAGGAUUGAGCAUCA
B6: ENSG00000070961:be:win_1751|CDS|ENSG00000070961|bound_else_gene|NA|bound_elsewhere_windowed (ssRNA)
RNA: GGGAGUUCUACAGUCCGACGAUCCCAUGAGUACUGUCCUGAAAAAUUCAGAUGGAAGUUAUCGAAUAUUCAGCAAGGGUGCAUCUGAGAUAAUUCUGAAAAAGUGUUUCAAAAUCUUGAGUGCUAAUGGUGAGGCAAAAGUAUCAACAGAGGAUUGAGCAUCA
B7: chr1:205810550:205810651:-|5pUTR|ENSG00000133065|unk|FALSE|bound_elsewhere (ssRNA)
RNA: GGGAGUUCUACAGUCCGACGAUCUUGCGGCUUCAGUGCUUGAUGGGGCUGCCUGUUGGUGGAUCAGUUUUUGCAGUGCCUGGUAGGAGUGGAGAGCCGUGGGAAGAGGUCCUGCGGCGCCCAAGCCUGGGUUCACCCCAAGACCAACAGAGGAUUGAGCAUCA
B8: chr7:95294748:95294849:+|3pUTR|ENSG00000158528|msi1|FALSE|bound_elsewhere (ssRNA)
RNA: GGGAGUUCUACAGUCCGACGAUCGAGAAAGCCGACAGAAUCAGCUUCUCCUGGAAAGUGAAAGCAUCAAGUUCUAUUUAUGGUAGACAGAGGGUCCUUAUUUGCUUGUCCGUGGUGUCUAUGUGGGCCUAUUGAGGGAAUGGUCAACAGAGGAUUGAGCAUCA
B9: chr10:86890108:86890218:+|CDS|ENSG00000107779|unk|total|mutant (ssRNA)
RNA: GGGAGUUCUACAGUCCGACGAUCUCAUGGCACUGGGAUGAAAUCAGACUCCGACCAGAAAAAGUCAGAAAAUGGAGUAACCUCCGCACCAGAGGAUACCUUGCCUUUUUUAAAGUGCUAUUGCUCAGGGCACUGUCCAGAUGACAACAGAGGAUUGAGCAUCA
B10: ENSG00000070961:be:win_5601|3pUTR|ENSG00000070961|bound_else_gene|NA|bound_elsewhere_windowed (ssRNA)
RNA: GGGAGUUCUACAGUCCGACGAUCGAGGUAGCAUGAUAUGCUGGAAAGCAUAUUAGACUAGGAGUCAAGACCUGGUUUCUAGUCUUGGUUUUGCCAUUAAUGUGCUGCAUGAUCUUGGGAAAAUCAUUUACCCUAAAUAAGGGUCAACAGAGGAUUGAGCAUCA
B11: chr1:226632358:226632459:-|3pUTR|ENSG00000143772|msi1|total|mutant (ssRNA)
RNA: GGGAGUUCUACAGUCCGACGAUCUCAAGCCAUUUUGCCACUCGCUUCCCUGCCAUCUGGCCCUUCCCUUUGUCUCAGUGGGACCGAUGGAUUGUGAAAUGGAAUCUCCCAGAACCCCUGCCCUGGCAGCCUGGAAGACCGUGCCAACAGAGGAUUGAGCAUCA
B12: chr1:186359875:186359976:-|CDS|ENSG00000047410|msi1_unk|FALSE|overlapping (ssRNA)
RNA: GGGAGUUCUACAGUCCGACGAUCGGAAACUCAGGAUCAGUUGCUUUUGGAGAAACUAGAGAACAAAAGAAUUAAUAAGUACCUAGAUGAAAUAGUGAAAGAAGUGGAAGCCAAAGCACCAAUUUUGAAACGCCAGCGUGAGGACAACAGAGGAUUGAGCAUCA
B13: chr20:63196482:63196583:-|3pUTR|ENSG00000149658|msi1|total|mutant (ssRNA)
RNA: GGGAGUUCUACAGUCCGACGAUCUGAUUUUUGCCCAGAUGGAUCUGCAUUUAUUUGUACUUUUUCUAUGUAUUAUAAUCCUGCCGAAGUCACUAAUAAAGGAGUAUUUUUUUUGUCAGCUUAUCAAUCAGACUGAUCUAAUGUCAACAGAGGAUUGAGCAUCA
B14: chr6:157944353:157944454:+|3pUTR|ENSG00000130340|unk|FALSE|unique (ssRNA)
RNA: GGGAGUUCUACAGUCCGACGAUCAGUAAUUCUCCCCACUUGAUUUUUCUUCUAUAAAAUCCCAUAGAACAAUGUUUAUGCUAUAGCCAUUUAAUAUAUGUACAAAUUGUAAAGAAUAUGUAUAAAUGUUUUACACGAAUGUAACAACAGAGGAUUGAGCAUCA
B15: chrX:30828625:30828726:-|3pUTR|ENSG00000157625|msi1|FALSE|bound_elsewhere (ssRNA)
RNA: GGGAGUUCUACAGUCCGACGAUCUUCUUGUUUCUUGUAAGAGGUUUCUUUAAAAUGACUAGUUUGAUGUAUCUGGUAACAUAUAGGCCUGACUAUACAUUUUACAUUAUUUCGCUAUUUUGUAAACUGGGAUUUUAGAAAGCACAACAGAGGAUUGAGCAUCA
B16: chr19:41259979:41260080:+|3pUTR|ENSG00000167601|msi1|total|mutant (ssRNA)
RNA: GGGAGUUCUACAGUCCGACGAUCCCUGUCUUCCUACCUAUCCCACCUCCAUCCCAGACAGGUCCCUCCCCUUCUCUGUGCAGCCGCAUCACCUUGAAAGCAGCCGCAUCACCAUCUGUAAAAGGAAGGGGUUGGAUUGCAAUACAACAGAGGAUUGAGCAUCA
B17: chr12:104348774:104348848:+|3pUTR|ENSG00000198431|msi1_unk|total|mutant (ssRNA)
RNA: GGGAGUUCUACAGUCCGACGAUCCGUUGUCAAGUUUUCCCGGGUUGAAUUUUUUUCUUUUUUCUCCAUGGUGUUAAUGAUAUCCGAGAUGAAAAACGUCCGCAGUUGAUUUUUGUCCAAAAGCAAGUCAUGGCCCGAGUAUCCCAACAGAGGAUUGAGCAUCA
B18: chr5:150649000:150649101:+|CDS|ENSG00000171992|msi1|total|mutant (ssRNA)
RNA: GGGAGUUCUACAGUCCGACGAUCCAGGCCUUUUGGGAUCCAGGCGCCAGGGGGCACCAGCCAGAUGGAGAGGAGCCCCAUGCCCGAGAGACGACAUUUUGGGGAGAAGGCCCCGGCUCCCCAGCCCCCCAGUUUGCCAGACAGCAACAGAGGAUUGAGCAUCA
B19: chr5:148442723:148442824:+|3pUTR|ENSG00000145868|unk|FALSE|unique (ssRNA)
RNA: GGGAGUUCUACAGUCCGACGAUCUUAUGAGCUUAAAAAAAAGUGAGUUUGAGAGGGAAAUGGAAAAGUUUCCAGAGUAUUUCUAGUAAUUUAUUUCCACAUUGAAUUGUGUAUAUGCUUUAUCUUGAAUAUAAAAUAAAAGUUCAACAGAGGAUUGAGCAUCA
B20: chr14:94062441:94062542:-|CDS|ENSG00000089737|msi1|total|mutant (ssRNA)
RNA: GGGAGUUCUACAGUCCGACGAUCCCUCCAAGUAACACCGAAGCACCACCUGGAGAGACCAGAACUGAGGCCGGAGCUGAGACCCGAUCACCAGGCAAGGCUGAAGCUGAGUCUGAUGCAUUGCCUGACGAUACUGUAAUUGAGCAACAGAGGAUUGAGCAUCA
B21: chr2:218454035:218454136:-|3pUTR|ENSG00000135913|msi1|FALSE|unique (ssRNA)
RNA: GGGAGUUCUACAGUCCGACGAUCGAGAUUUCUUCACACAGUAUGUUCAUCAUAUAUCAUCAUCAUUAUUAUGGUGGUAAAGAUAGAAUCUUUUUUCUUUUUUGUCAUUCUGCCAUGGAGCAGCAUUACCCUAAUGGAUUGCAACAACAGAGGAUUGAGCAUCA
B22: chr12:130875966:130876013:+|3pUTR|ENSG00000132341|msi1_unk|total|mutant (ssRNA)
RNA: GGGAGUUCUACAGUCCGACGAUCGAUGAGGAUGAUGACCUGUGAGAAUGAAGCUGGAGCCCAGCGUCAGAAGUCCCGUUUUACCGGCAGCUGUCCUGUGAUGUCAGCGGUGCAGCGUGUGUGCCACCUCAUUAUUAUCCCGCUCAACAGAGGAUUGAGCAUCA

The assay deals with MSI1 full-length (mouse, UniProt Q61474 1-362). Description: nsRBNS (natural sequence RNA bind-n-seq); RBNS binding buffer (assumed for nsRBNS): 25 mM Tris pH 7.5, 150 mM KCl, 3 mM MgCl2, 0.01% Triton X-100, 500 ug/ml BSA, 20 U/ml SUPERase-In, 4 C; UNK is unkempt and MSI1 is Musashi-1; names of the RNAs are library labels; protein concentration not given here; high values mean tight binding.
UniProt Q61474, sequence (Q61474 whole entry): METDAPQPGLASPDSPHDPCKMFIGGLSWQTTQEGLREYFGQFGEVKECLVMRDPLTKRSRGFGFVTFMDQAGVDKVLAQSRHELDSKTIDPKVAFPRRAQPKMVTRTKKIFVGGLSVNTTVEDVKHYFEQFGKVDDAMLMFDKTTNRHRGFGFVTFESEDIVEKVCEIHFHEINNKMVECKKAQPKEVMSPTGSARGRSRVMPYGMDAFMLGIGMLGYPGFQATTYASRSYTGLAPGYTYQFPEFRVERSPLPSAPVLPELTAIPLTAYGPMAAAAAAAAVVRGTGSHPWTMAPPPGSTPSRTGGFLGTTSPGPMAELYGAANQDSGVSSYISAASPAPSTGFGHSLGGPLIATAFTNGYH
In the case of B1, the binding signal is 0.452 enrichment R.
B2: the binding signal is 0.399 enrichment R.
The molecule B3 showed a binding signal of 0.834 enrichment R.
In the case of B4, the binding signal worked out at 1.47 enrichment R.
In the case of B5, the binding signal came to 0.567 enrichment R.
On to B6, for which the binding signal stood at 0.27 enrichment R.
Under B7 stands 0.396 enrichment R; under B8, 0.482 enrichment R.
Regarding B9, the binding signal was determined as 0.287 enrichment R.
As to B10, the binding signal came to 0.263 enrichment R.
For the molecule B11, the binding signal came out at 1.14 enrichment R.
Under B12 stands 9.6 enrichment R; under B13, 0.79 enrichment R.
B14 yielded a binding signal of 3.06 enrichment R.
The molecule B15 showed a binding signal of 0.868 enrichment R.
The value for B16 was 0.602 enrichment R.
Molecule B17 had a binding signal of 0.246 enrichment R.
Under B18 stands 0.42 enrichment R; under B19, 0.985 enrichment R; under B20, 0.403 enrichment R.
Consider B21, for which the binding signal was found to be 0.284 enrichment R.
Molecule B22 displayed a binding signal of 0.476 enrichment R.

These data come from publication PMC12136788.
